Hit rate of the full screen: of about 350,000 compounds, about 260 (0.074%) were called active. The shares of active, inactive and inconclusive entries below differ from those in the screen. The call rests on the fitted dose curve; in most records, active means well fitted inhibition curve with a large enough effect; inconclusive means small, poorly fitted or top-dose-only effect; inactive means no such curve, though single readings can be large or run the other way. Potencies of inconclusive entries are doubtful fits and often do not repeat.
Target: Ferritin light chain (Equus caballus) (UniProt P02791)
Chain of UniProt P02791 (P02791 whole entry, looked up): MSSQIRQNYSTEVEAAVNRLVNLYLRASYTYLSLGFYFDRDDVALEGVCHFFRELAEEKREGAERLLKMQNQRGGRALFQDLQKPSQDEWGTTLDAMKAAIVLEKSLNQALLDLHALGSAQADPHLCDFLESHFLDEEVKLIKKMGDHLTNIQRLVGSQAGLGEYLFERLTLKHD
Test: qHTS Assay for Identification of Novel General Anesthetics; further: nearly all actives have a fitted effect of over 20% in size
Details: apoferritin/1-aminoanthracene competitive binding, fluorescence; series mostly up to 77.5 µM
Method in brief: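 Concentration-response curves derived by four-parameter Hill fitting of normalized fluorescence, where compounds displaced 1-AMA from 10 uM horse apoferritin following a brief 10 min room-temperature incubation; propofol titration acted as positive control.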
Potency means the concentration at half of the fitted maximal effect; tags describe the fitted curve by direction and shape.

SMILES | Potency
Cc1ccc(NC(=O)CSc2nc3ccccc3c(=O)n2CCCN2CCCCC2)cc1Cl | inconclusive: 31.6 µM [inhibitor, partial curve]
CCN1CCCC1CN(Cc1cc2c(C)cc(C)cc2[nH]c1=O)C(=O)NC1CCCCC1 (configuration not stated) | inconclusive: 39.8 µM [inhibitor, partial curve]
N#CCSc1nc(-c2ccccc2)cs1 | inconclusive: 35.5 µM [inhibitor, single point]
O=C(c1cc(F)c(F)cc1Cl)N1CCCc2ccccc21 | inconclusive: 39.8 µM [inhibitor, partial curve]
CCOc1ccccc1CN1CCNC(=O)C1CC(=O)NCCC1=CCCCC1 (configuration not stated) | inconclusive: 25.1 µM [inhibitor, single point]
O=C(Nc1ccccc1C(=O)N/N=C/c1ccco1)c1ccc(F)cc1 | inactive
COc1ccccc1C(=O)N1c2ccccc2Sc2ccccc21 | inactive
CCc1ccccc1Nc1nc(N)nc(CSCC(=O)c2cc(C)n(C)c2C)n1 | inconclusive: 25.1 µM [inhibitor, partial curve]
O=C1NC(=S)/C(=C\c2ccc(-c3ccccc3Cl)o2)S1 | inconclusive: 50.1 µM [inhibitor, single point]
Cn1c(/C=C/N(Cc2ccccc2)c2ccccc2)c([N+](=O)[O-])c(=O)n(C)c1=O | inconclusive: 35.5 µM [inhibitor, partial curve]
Cc1ccc(-n2nc(C)c3c(C)cc(=O)n(CC(=O)Nc4cccc(C)c4C)c32)cc1 | inactive
Fc1ccccc1CSc1nnc(-c2ccccc2)o1 | inconclusive: 28.2 µM [inhibitor, partial curve]
CC[C@H](C)[C@H](N)C(=O)N[C@@H](CC(N)=O)C(=O)N1CCC[C@H]1C(=O)N[C@H](C(=O)N[C@@H](Cc1ccc(O)cc1)C(=O)N[C@@H](CCCN=C(N)N)C(=O)N[C@@H](CC(C)C)C(=O)N[C@@H](CCCN=C(N)N)C(=O)N[C@@H](Cc1ccc(O)cc1)C(N)=O)[C@@H](C)CC | inactive
CSc1ccccc1NC(=O)CSc1n[nH]c(C)c1[N+](=O)[O-] | inconclusive: 25.1 µM [inhibitor, single point]
CC1(C)Cc2c(C#N)c(N)sc(=S)c2CS1 | inconclusive: 25.1 µM [inhibitor, partial curve]
Cc1ccc(-c2csc(N3CCN(c4cc5c(cc4Cl)nc(C)n5CCN4CCCCC4)CC3)n2)cc1 | inconclusive: 35.5 µM [inhibitor, partial curve]
Cc1ccc(OCC(=O)Nn2c(C)nc3ccccc3c2=O)c(C(C)C)c1 | inconclusive: 31.6 µM [inhibitor, partial curve]
O=C(C[n+]1cc(Br)cc2ccccc21)c1ccc(Cl)cc1 | inactive
COc1ccccc1C(=O)N1CCN(c2cccc(C(F)(F)F)c2)CC1 | inactive
O=C1CN(C(=O)CSc2nnc(-c3ccccc3)n2Cc2ccc3c(c2)OCO3)c2ccccc2N1 | inconclusive: 56.2 µM [inhibitor, single point]
O=C(COc1ccccc1F)Nc1ccc(S(=O)(=O)NCc2ccco2)cc1 | inconclusive: 28.2 µM [inhibitor, partial curve]
CC1C=CCC2C(=O)N(c3cc(Cl)ccc3O)C(=O)C12 (configuration not stated) | inconclusive: 8.91 µM [inhibitor, partial curve]
Cc1cccc(C(=O)OCC(=O)NC(=O)Cc2ccccc2)c1O | inconclusive: 50.1 µM [inhibitor, single point]

SMILES | Potency
C=CCOc1ccc(/C=C2\SC(N3CCCCC3)=NC2=O)cc1 | inactive
NNC(=O)CSc1c(-c2ccccc2)c2cc(Cl)ccc2[nH]c1=O | inactive
O=C(/C=C/c1ccco1)c1ccccc1O | inconclusive: 28.2 µM [inhibitor, partial curve]
COc1cccc(CN2CCC(C(=O)N3CCN(Cc4ccc5c(c4)OCO5)CC3)CC2)c1OC | inactive
N=C1/C(=C/c2cccs2)C(=O)N=C2SN=C(SCc3ccccc3)N12 | inconclusive: 22.4 µM [inhibitor, partial curve]
Cc1ccc(CNc2oc(C)nc2C#N)cc1 | inconclusive: 25.1 µM [inhibitor, partial curve]
O=S(=O)(NC1CC2CCC1C2)c1ccc2c(c1)OCCO2 (configuration not stated) | inconclusive: 25.1 µM [inhibitor, partial curve]
Cc1c(CCOC(=O)C2C3CC4CC(C3)CC2C4)sc[n+]1CC(=O)c1ccc(Br)cc1 (configuration not stated) | inconclusive: 35.5 µM [inhibitor, partial curve]
O=C(COc1ccccc1Cl)Nc1ccc(CN2CCCCC2)cc1 | inconclusive: 25.1 µM [inhibitor, partial curve]
COc1cccc(C(=O)/C=C/Nc2ccc(S(=O)(=O)Nc3cccc(C(C)=O)c3)cc2)c1 | inconclusive: 2.24 µM [inhibitor, full curve, poor fit]
O=C(Cc1ccc(Cl)cc1)Nc1ccc(Cl)cn1 | inactive
Cc1ccc(-c2ccc(=O)n(CC(=O)N3CCN(c4cc(Cl)ccc4C)CC3)n2)cc1 | inconclusive: 7.08 µM [inhibitor, partial curve]
Cc1cc(C)cc(Oc2coc3cc(OC(=O)c4cccs4)ccc3c2=O)c1 | inconclusive: 12.6 µM [inhibitor, partial curve]
Cc1nc(NCc2ccccc2)c2nc(-c3ccccc3)n(CCN3CCCCC3)c2n1 | inconclusive: 50.1 µM [inhibitor, single point]
C/C(=N\Nc1ccc(F)cc1F)c1ccccc1O | inconclusive: 25.1 µM [inhibitor, partial curve]
O=C(Cn1nnc2c(cnn2-c2ccc(F)cc2)c1=O)OC1CCCCC1 | active: 12.6 µM
CC(C)(C)CN1CCNC(=O)C1CC(=O)NCCc1ccccc1C(F)(F)F (configuration not stated) | inconclusive: 28.2 µM [inhibitor, single point]
COc1ccccc1CN1CCNC(=O)C1CC(=O)NC1CCCCCC1 (configuration not stated) | inconclusive: 31.6 µM [inhibitor, partial curve]
O=C(NC(=S)Nc1ccccc1F)C1CCCCC1 | inconclusive: 28.2 µM [inhibitor, partial curve]
CCOc1ccc(-n2c(-c3ccc(Br)cc3)c[n+]3c2CCCCC3)cc1 | inactive
Cc1ccc(/C=N/NC(=O)CSCc2ccc(Cl)cc2)cc1 | inconclusive: 7.08 µM [inhibitor, full curve]
Cc1c(CC(=O)NCCCCCC(=O)O)c(=O)oc2cc3c(cc12)CCC(C)(C)O3 | inactive
c1ccc2[nH]c(CSc3nc4ccccc4s3)nc2c1 | inconclusive: 11.2 µM [inhibitor, partial curve]

SMILES | Potency
CC1Cc2ccccc2N1C(=O)COC(=O)c1ccc(O)cc1 (configuration not stated) | inconclusive: 35.5 µM [inhibitor, single point]
CN(C)C(CNC(=O)/C=C/c1cccc(Cl)c1)c1ccccc1 (configuration not stated) | inactive
O=C(CCCn1c(=O)c2cccn2c2ccccc21)NCc1ccccc1Br | inactive
COc1cc(C(C)C)c2c(c1)S(=O)(=O)N(COc1cc(=O)n3cccc(OCCN4CCCCC4)c3n1)C2=O | inconclusive: 25.1 µM [inhibitor, single point]
CCn1c(-c2cccc(Br)c2)n[nH]c1=S | inactive
O=C(Cc1ccccc1)N/N=C/c1ccccc1Cl | inconclusive: 20 µM [inhibitor, partial curve]
CC(C)CNc1nc(N)c([N+](=O)[O-])c(N2CCCCCC2)n1 | inconclusive: 50.1 µM [inhibitor, single point]
COc1cccc(-c2cc(C(=O)Nc3cccnc3)c3ccccc3n2)c1 | inconclusive: 15.8 µM [inhibitor, partial curve]
CCN(CC)CCOC(=O)c1ccc(NC(=O)CCCN2C(=O)/C(=C\c3cccs3)SC2=S)cc1 | inconclusive: 15.8 µM [inhibitor, partial curve]
Cc1ccc2c(c1)N(CC(=O)N(Cc1ccccn1)Cc1ccco1)C(=O)C(C(C)C)O2 (configuration not stated) | inconclusive: 22.4 µM [inhibitor, partial curve]
CCN(CC)C(=O)COc1cccc2ccccc12 | inconclusive: 22.4 µM [inhibitor, partial curve]
CCN(CC)C(=O)Cn1cc(C(=O)C(=O)N2CC=C(c3ccccc3)CC2)c2ccccc21 | inconclusive: 35.5 µM [inhibitor, single point]
COc1ccc(O)c(C(=O)c2cnn(-c3ccccn3)c2)c1 | inactive
O=[N+]([O-])c1nn(-c2cccc(Cl)c2)n(O)c1=NCc1cccnc1 | inactive
Cc1ccc(NCc2ccccc2)cc1 | inconclusive: 7.94 µM [inhibitor, partial curve]
CC(C)CCNC(=O)Cc1csc(-c2ccccc2)n1 | inconclusive: 39.8 µM [inhibitor, partial curve]
O=c1[nH]c(COc2ccc(Br)cc2Cl)nc2ccccc12 | inconclusive: 12.6 µM [inhibitor, partial curve]
Cc1cc(C(=O)NCc2cccs2)no1 | inconclusive: 28.2 µM [inhibitor, partial curve]
O=c1c(Cl)c(N2CCN(S(=O)(=O)c3ccc(F)cc3)CC2)cnn1-c1cccc(Cl)c1 | inconclusive: 12.6 µM [inhibitor, partial curve]
CC(C)(C)NS(=O)(=O)c1ccc(OCC(=O)Nc2ccc3c(c2)OCCO3)cc1 | inconclusive: 25.1 µM [inhibitor, partial curve]
CCc1ccc(S(=O)(=O)N(C(=O)c2ccncc2)c2ccc(OC(=O)c3ccncc3)cc2)cc1 | inconclusive: 25.1 µM [inhibitor, single point]
